From the supplement of paper PMC7826260 come the findings set out here.

Common to all, as to assay: uncleaved DNA left, log2 of reads against the no-enzyme library (log2 ratio); higher = less cleavage (more negative = more Rep cleavage of the k-mer); sequences stand for … in CTCGTCCG…ACCGGAGA
In assay [1] the test system is T1, Rep nickase domain of Muscovy duck circovirus.
T1 sequence (residues 1-111, tag not shown): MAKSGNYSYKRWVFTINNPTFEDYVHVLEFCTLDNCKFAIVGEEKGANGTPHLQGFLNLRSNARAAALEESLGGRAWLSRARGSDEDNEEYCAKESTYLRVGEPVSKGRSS
The procedure:
(§1)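 A pool of 90-nt single-stranded DNAs with seven random bases just before the constant AC of the nick site (name = the seven bases) was cut by 3 µM recombinant His6-SUMO-tagged Rep nickase domain (300 nM DNA, 50 mM HEPES pH 8.0, 50 mM NaCl, 1 mM MnCl2, 1 h, 37 °C, three replicates). Uncut DNA was amplified and sequenced.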

The test system of assay [2] is T2, Rep nickase domain of banana bunchy top virus.
T2 sequence (residues 1-94, tag not shown): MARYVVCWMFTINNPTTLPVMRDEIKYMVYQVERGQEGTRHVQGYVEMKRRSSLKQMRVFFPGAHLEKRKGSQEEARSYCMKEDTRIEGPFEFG
The procedure:
as §1

For assay [3], the system named is T3, Rep nickase domain of cabbage leaf curl virus.
T3 sequence (residues 1-116, tag not shown): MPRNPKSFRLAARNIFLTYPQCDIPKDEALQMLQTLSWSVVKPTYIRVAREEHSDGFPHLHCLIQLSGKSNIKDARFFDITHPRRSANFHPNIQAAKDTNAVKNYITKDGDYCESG
As to the method: as §1
The subject of assay [4] is T4, Rep nickase domain of chickpea chlorotic dwarf virus.
T4 sequence (residues 1-124, tag not shown): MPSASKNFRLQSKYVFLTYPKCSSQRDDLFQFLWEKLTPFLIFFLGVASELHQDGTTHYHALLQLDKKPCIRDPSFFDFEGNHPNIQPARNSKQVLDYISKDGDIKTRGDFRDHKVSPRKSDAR
As to the method:
as §1

Assay [5] relates to T5, Rep nickase domain of faba bean necrotic yellows virus.
T5 sequence (residues 1-98, tag not shown): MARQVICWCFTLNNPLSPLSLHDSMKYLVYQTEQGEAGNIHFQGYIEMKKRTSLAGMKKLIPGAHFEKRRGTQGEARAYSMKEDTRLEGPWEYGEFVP
As to the method:
as §1

In assay [6] the test system is T6, Rep nickase domain of maize striate mosaic virus.
T6 sequence (residues 1-117, tag not shown): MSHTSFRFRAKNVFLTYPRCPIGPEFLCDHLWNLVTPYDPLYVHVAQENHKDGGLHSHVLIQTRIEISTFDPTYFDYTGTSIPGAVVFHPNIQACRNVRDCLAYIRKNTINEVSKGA
As to the method: as §1
The test system of assay [7] is T7, Rep nickase domain of porcine circovirus 2.
T7 sequence (residues 2-116, tag not shown): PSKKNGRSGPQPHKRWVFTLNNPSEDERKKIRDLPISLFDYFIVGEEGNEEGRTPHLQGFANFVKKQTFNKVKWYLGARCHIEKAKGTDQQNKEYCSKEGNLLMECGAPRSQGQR
As to the method: as §1
The test system of assay [8] is T8, Rep nickase domain of tomato golden mosaic virus.
T8 sequence (residues 1-124, tag not shown): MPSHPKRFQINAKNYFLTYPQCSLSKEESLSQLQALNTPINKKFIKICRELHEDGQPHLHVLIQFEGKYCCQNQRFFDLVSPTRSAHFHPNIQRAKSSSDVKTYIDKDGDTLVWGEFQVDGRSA
As to the method: as §1
Assay [9] relates to T9, Rep nickase domain of tomato yellow leaf curl virus.
T9 sequence (residues 1-136, tag not shown): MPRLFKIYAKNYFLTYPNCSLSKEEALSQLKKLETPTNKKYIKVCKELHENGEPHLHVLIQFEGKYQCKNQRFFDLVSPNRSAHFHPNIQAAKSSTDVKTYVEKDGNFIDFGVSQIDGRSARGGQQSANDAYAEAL
As to the method: as §1
The test system of assay [10] is T10, Rep nickase domain of wheat dwarf virus.
T10 sequence (residues 1-137, tag not shown): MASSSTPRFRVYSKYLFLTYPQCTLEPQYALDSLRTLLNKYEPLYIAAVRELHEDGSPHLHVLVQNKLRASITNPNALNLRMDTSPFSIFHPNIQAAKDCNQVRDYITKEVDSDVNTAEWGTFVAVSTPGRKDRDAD
As to the method:
as §1

The other results are listed elsewhere or left out. One pool of 16,384 single-stranded DNAs met each Rep nickase domain in vitro (3 µM enzyme, 1 h, 37 °C); shown is the middle of each 90-letter strand. The score is log2 (uncut reads / reads without enzyme); uncut sequences lie near 0, cut ones below; no hit call is given. Shares of all reads are compared; uncut strands gain when others are lost, and binding without cutting may add a little.

On to ACCTGCC, for which the “uncleaved DNA left (log2)” value in assay [1] is 0.0369; in assay [2], 0.00781; in [3], -0.436; in [4], -0.316; in assay [5], -0.0431; in assay [6], -0.775. For the same sequence, the “uncleaved DNA left (log2)” value in [7] is 0.0524; in assay [8], -0.00652; in [9], -0.038; in assay [10], -0.0965.

AAACCGC: the “uncleaved DNA left (log2)” value in assay [1] is 0.0412; in assay [2] it was -0.0372; in assay [3], -0.586; in assay [4], -0.927; in assay [5], -0.0392; in [6] it was -1.02. The “uncleaved DNA left (log2)” value in assay [7] was -0.0896; in [8], -0.0941; in assay [9] it was -0.116; in [10], -0.0613.

On to CCGCGCT, for which the “uncleaved DNA left (log2)” value in assay [1] is 0.113; in assay [2], -0.0469; in assay [3], -0.575; in assay [4], -1.12; in assay [5], 0.0205; in assay [6], -0.851. In addition, the “uncleaved DNA left (log2)” value in [7] was 0.00531; in [8], -0.11; in assay [9], -0.209; in assay [10], -0.151.

Take TTACGTA: the “uncleaved DNA left (log2)” value in assay [1] was 0.0529; in assay [2] it was -0.0188; in [3], -0.033; in assay [4] it was -1.22; in [5] it was -0.146; in assay [6], -0.398. Besides, the “uncleaved DNA left (log2)” value was -0.213 in assay [7], -0.115 in [8], -0.0466 in assay [9] and -0.0502 in assay [10].

With TCACTGA, the “uncleaved DNA left (log2)” value in [1] was -0.0368; in [2], -0.0293; in assay [3] it was -0.0874; in assay [4] it was 0.293; in [5], 0.00817; in assay [6], 0.825. In addition, the “uncleaved DNA left (log2)” value is 0.0624 in assay [7], -0.0971 in [8], 0.000616 in [9] and -0.0628 in [10].

Regarding ACAAAAT, the “uncleaved DNA left (log2)” value in assay [1] was 0.00949; in [2], -0.0779; in assay [3], -0.196; in assay [4], -0.703; in assay [5], 0.0594; in assay [6], -0.696. The “uncleaved DNA left (log2)” value is 0.0937 in [7], 0.161 in [8], -0.0827 in assay [9] and 0.0256 in assay [10].

Take CAATAAA: the “uncleaved DNA left (log2)” value was -0.176 in assay [1]; 0.0251 in assay [2]; -0.377 in [3]; -1.05 in [4]; -0.054 in assay [5]; -0.827 in assay [6]. Moreover, the “uncleaved DNA left (log2)” value was -0.165 in [7], -0.0894 in assay [8], -0.216 in [9] and -0.0873 in [10].

Take TTCCAAC: the “uncleaved DNA left (log2)” value is 0.0119 in assay [1]; 0.0312 in [2]; 0.153 in assay [3]; -1.12 in assay [4]; -0.00268 in assay [5]; -0.00218 in [6]. In addition, the “uncleaved DNA left (log2)” value in [7] was 0.0315; in assay [8], -0.0816; in assay [9], 0.0322; in [10], 0.0743.

With TCTGAGG, the “uncleaved DNA left (log2)” value in assay [1] is 0.186; in assay [2] it was 0.123; in assay [3], 0.494; in assay [4], 1.33; in [5], 0.0162; in assay [6] it was 1.54. The “uncleaved DNA left (log2)” value was 0.18 in assay [7], 0.202 in assay [8], -0.183 in assay [9] and 0.0309 in [10].

ATGTAGT: the “uncleaved DNA left (log2)” value in assay [1] was -1.34; in assay [2], -0.468; in assay [3] it was -0.399; in assay [4], -1.04; in assay [5] it was -0.54; in assay [6], -1.03. In addition, the “uncleaved DNA left (log2)” value in assay [7] is -3.48; in assay [8], -0.0151; in [9], -0.102; in [10], -0.128.

With TGGATAG, the “uncleaved DNA left (log2)” value in assay [1] is -0.0633; in [2], 0.0474; in [3] it was -0.0614; in assay [4] it was 0.745; in assay [5] it was -0.103; in assay [6], -0.259. For the same sequence, the “uncleaved DNA left (log2)” value in assay [7] was 0.0109; in assay [8] it was -0.1; in assay [9], 0.0127; in assay [10], 0.0194.

GGGTGTT: the “uncleaved DNA left (log2)” value in [1] is -0.189; in [2], 0.0182; in assay [3], 0.571; in assay [4], 1.61; in [5], -0.252; in assay [6] it was 2.1. Besides, the “uncleaved DNA left (log2)” value in assay [7] was -2.31; in assay [8] it was -0.0928; in [9], 0.0805; in assay [10] it was -0.044.

As for TTTCGCC, the “uncleaved DNA left (log2)” value is 0.0995 in assay [1]; -0.00633 in assay [2]; -0.0694 in [3]; -0.489 in assay [4]; 0.0777 in assay [5]; -0.88 in [6]. For the same sequence, the “uncleaved DNA left (log2)” value is 0.0198 in assay [7], -0.101 in assay [8], 0.00286 in [9] and 0.0411 in assay [10].

As to TGCGTTC, the “uncleaved DNA left (log2)” value in assay [1] is 0.204; in assay [2] it was 0.0356; in assay [3], -0.161; in [4] it was -0.42; in assay [5], 0.0198; in assay [6], -0.688. The “uncleaved DNA left (log2)” value in assay [7] came to 0.0698; in [8], 0.0113; in assay [9], 0.102; in assay [10], 0.0145.

Regarding TGATTTC, the “uncleaved DNA left (log2)” value in assay [1] came out at 0.0931; in [2], 0.125; in [3] it was 0.438; in assay [4], 0.629; in assay [5] it was 0.081; in assay [6], 0.856. Further, the “uncleaved DNA left (log2)” value is 0.104 in assay [7], 0.212 in assay [8], 0.0824 in assay [9] and 0.0966 in [10].
